In the supplement of paper PMC3334620:
In all, about 33,000 sequences were measured (“E-score (-0.5 to 0.5)”: median about -0.054, highest 2% from about 0.39 on). The list shows a part of the results.

Molecular target: Ylr278c (UniProt Q05854)
Test: PBM E-score (8-mer binding enrichment) (E-score (-0.5 to 0.5)); higher = stronger / more preferred TF binding; most listed sequences are background and not binding sites
Settings: protein concentration: 200 nM; construct: GST-DNA-binding domain
How it was run: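 The E-score, a modified Wilcoxon-Mann-Whitney statistic, was computed by the Universal PBM Analysis Suite for every ungapped eight-base word pooled with its reverse complement. Scans behind it were normalised with masliner after bound GST-tagged yeast transcription factors were detected with fluorescent anti-GST. The proteins, at about 100-200 nM, had been applied to universal all-10-mer Agilent arrays made double-stranded by primer extension.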

Row | Sequence | PBM E-score
1 | CTGTACAA | 0.0584
2 | TACGGAGA | 0.386
3 | TGACGAAA | -0.129
4 | TAGACACA | -0.187
5 | AGTTGTCA | -0.0457
6 | TCTATCCA | -0.0603
7 | ACTTATCA | -0.135
8 | ATAAGGGG | -0.0334
9 | TAATGCCA | -0.0442
10 | GCCTCAAC | -0.245
11 | ACTTCCTG | -0.0794
12 | GAATCAAA | -0.0169
13 | ATACTTAC | -0.101
14 | CGATGCAG | -0.016
15 | AAGAAGAA | -0.0393
16 | GCGATATA | 0.00114
17 | ATGTCGCA | -0.0728
18 | CAGAGGGA | -0.166
19 | CGGAACAC | 0.353
20 | AGTCGTTG | -0.245
21 | ATACGCGC | -0.055
22 | CCTACCGC | -0.0389
23 | AGGTGTTC | -0.252
24 | CAGGGGGG | -0.265
25 | AGCTATTG | -0.161

Row | Sequence | PBM E-score
26 | TGCATTAA | -0.0658
27 | TCTTACCA | -0.21
28 | AGGGACGA | -0.121
29 | CAAGTAGA | 0.0185
30 | CCGGCAAC | 0.32
31 | CTAGGAAA | -0.148
32 | ATGACTGG | -0.052
33 | CCGTCCCG | 0.348
34 | GAGCTATC | 0.117
35 | CCTTATGC | -0.104
36 | GCGGCGGA | 0.453
37 | GAGATGGC | 0.155
38 | GTCCAGAA | -0.00598
39 | CGTCACCC | -0.0058
40 | CATAGCGA | -0.136
41 | GTCCCTGA | -0.259
42 | AGGTGGGG | -0.151
43 | CACAGTTC | 0.0283
44 | CACTTTCG | 0.0954
45 | AAAATGGC | 0.0152
46 | GAACGAAC | 0.0162
47 | AAAGTCCA | -0.0593
48 | AGCCTGGA | -0.106
49 | AATCCCTA | -0.0752
50 | AGGGCTAG | -0.18

Row | Sequence | PBM E-score
51 | ACTATCCT | -0.00288
52 | CTCAACTA | -0.0326
53 | AGGGTCAG | -0.247
54 | AGACAGAC | 0.00495
55 | GTAGACTA | -0.136
56 | ATATAGAA | -0.126
57 | AGTCGAGG | -0.101
58 | TAATAGAA | -0.144
59 | ACTTACCA | -0.0445
60 | CCTTGGGA | -0.0166
61 | ACCCCGAC | 0.39
62 | CGGGCTAA | 0.178
63 | CATAGTGG | -0.107
64 | AGAAGCAG | -0.198
65 | CTCTGGTA | -0.213
66 | AGCCGTGG | -0.0605
67 | ACAAGGTG | -0.0704
68 | GACGAGGA | -0.176
69 | TATCGCGA | 0.115
70 | ACCAACTG | -0.117
71 | AGATCGTC | -0.267
72 | AGGCCGAA | 0.243
73 | GACATTAC | 0.0872
74 | GGCGATAA | 0.156
75 | CACATCCC | -0.00189

Row | Sequence | PBM E-score
76 | ATGATGAA | -0.0355
77 | ATTTAGCC | 0.0701
78 | CCATTTAC | 0.0821
79 | AAAGAGGT | -0.0839
80 | ACCACTAT | -0.241
81 | AAGGGATT | -0.281
82 | ACTGAGGA | -0.0929
83 | ACCCAGCG | -0.125
84 | AGCAGATA | -0.0688
85 | CTTGCATA | -0.224
86 | ATTTTGAA | 0.0175
87 | GACTCAAC | -0.0872
88 | ATTTACGG | 0.322
89 | GATACAAC | 0.0807
90 | TGCATGAA | -0.0338
91 | CCACTAAC | -0.293
92 | CACCGTCG | 0.205
93 | GATAGAGC | -0.0555
94 | AAAGTTCA | 0.0477
95 | ACTTTACG | -0.0903
96 | TGCCAAAA | -0.0916
97 | CGTGGGAA | -0.272
98 | GTATTAAC | -0.0125
99 | ACCTTGCT | -0.0598
100 | ATATGGAT | -0.177

Row | Sequence | PBM E-score
101 | TAGCGGAA | 0.314
102 | ATCCACTG | -0.108
103 | ACAGCTAG | -0.118
104 | CGGCACGC | 0.197
105 | GGGGATCA | -0.0408
106 | CAAAGCAC | -0.189
107 | CTGTCTTC | -0.188
108 | ACTTCGGG | 0.212
109 | AAAGTCCC | 0.173
110 | ACACAGGG | -0.0918
111 | GGGCTTGA | -0.142
112 | CCAATTGC | -0.12
113 | TGCTGTAA | -0.18
114 | AACCTGAA | -0.222
115 | CATGGCAA | -0.124
116 | GCCGAACA | 0.21
117 | TTCAACAA | -0.162
118 | CCAACTAG | -0.217
119 | AAATTATT | 0.12
120 | CCCGAATA | 0.263
121 | AAGTAGAC | -0.011
122 | GACGAATA | 0.0954
123 | CGTACAGA | -0.26
124 | ATCTTCAA | -0.196
125 | AATATGAG | -0.168

Row | Sequence | PBM E-score
126 | AAGGAATG | -0.0329
127 | ACACGCTC | 0.0439
128 | GGGGCGCA | -0.0178
129 | ATCTAGCC | -0.0261
130 | ACATTGAA | -0.0415
131 | CAGACTCG | -0.159
132 | ACCTCAGC | -0.0674
133 | CTTGCCGA | -0.0329
134 | ATTAGCTC | -0.0566
135 | CCGCACCG | 0.29
136 | ATAACCTA | -0.148
137 | AGGGCATG | -0.113
138 | AGCCTACA | -0.0936
139 | ACCGTGAA | 0.121
140 | GGGCCTGA | -0.161
141 | CACTCGCC | 0.0774
142 | CAACAGCC | -0.0545
143 | CCGGTACA | 0.322
144 | CACGAAGA | -0.155
145 | ATGTCATC | -0.143
146 | ACAGGTGC | -0.0681
147 | AGTGCCAG | -0.158
148 | ACGTAGTA | 0.0575
149 | ACGGGCGA | 0.172
150 | ACTGATGG | -0.167

Row | Sequence | PBM E-score
151 | CTAAGGAC | -0.0811
152 | TTAAGTAA | 0.115
153 | ATTTATGC | 0.0796
154 | GACAAAAC | 0.0574
155 | ACGCTTAG | -0.119
156 | AGACTACA | -0.199
157 | AATCGTCT | -0.194
158 | CAGGTTCG | 0.133
159 | AGTGTATG | -0.0273
160 | AGGCGTCA | -0.293
161 | AAGCATTC | -0.0721
162 | ATTCCGAG | 0.445
163 | CGGGGACC | 0.216
164 | CGGAGGCC | 0.42
165 | CACTGGCA | -0.134
166 | CCAGCTCG | -0.106
167 | TCATACAA | -0.0307
168 | ATATTCTG | 0.0833
169 | CTATTGAA | -0.0865
170 | AATACGTC | 0.139
171 | CTTACGCA | -0.202
172 | CTAAGGTA | 0.0138
